42 molecules from ChEMBL document CHEMBL4888484, “Replenishing the malaria drug discovery pipeline: Screening and hit evaluation of the MMV Hit Generation Library 1 (HGL1) against asexual blood stage Plasmodium falciparum ,using a nano luciferase reporter read-out” (2022) can be followed below.

Screen size: about 150,000 compounds; about 540 (0.36%) showed an effect of 50% or more. The list shows a part of the results.

The experiment deals with Plasmodium falciparum. Description: Primary screen in NF54 nanoGlo assay, in single point, at 2uM, 72h; a lower Z score goes with more inhibition. Type of experiment: functional, Erythrocyte. Conditions: timepoint 72 hour.
Regarding `CCC(C(=O)Nc1nccs1)N1C[C@H]2C[C@H](O)[C@H](O)C[C@H]2C1` (some centres undefined), the “% Inhibition” value is -11% and the Z score was found to be 1.46.
On to `COc1ccc(CN(C)[C@@H]2CCCC[C@@H]2O)c(F)c1`, for which the “% Inhibition” value is recorded as 0% and the Z score is given as -0.04.
For the molecule `CCN(CC)S(=O)(=O)c1ccc(N2CCOCC2)c(NCC(=O)Nc2ccc3c(c2)CCC3)c1`, the “% Inhibition” value is -42% and the Z score came out at 4.87.
The like results for `NC(=O)c1nccnc1C(=O)N[C@H]1CCCc2ccccc21` were, in that order, -8% and 1.21.
For `Cc1cc(NC(=O)c2ccoc2)cc2sc(N)nc12`, in that order: -2% and 0.38.
The like results for `O=S(=O)(CCn1ccnc1-c1cccs1)c1ccccc1` were, in that order, -16% and 1.39.
As to `O=C(Nc1ccc(O)cc1)[C@H]1C[C@@H]1C(F)F`, the “% Inhibition” value was -3% and the Z score came out at 0.41.
The like results for `CC(C)C1CN(C(=O)c2c[nH]nc2C2CCOC2)c2ccccc21` (centres undefined) were, in that order, -7% and 0.84.
As to `C[C@H](NS(C)(=O)=O)C(=O)NC(C)(C)Cc1ccccc1Cl`, the “% Inhibition” value was determined as 41% and the Z score is recorded as -5.88.
The like results for `CCOC(=O)[C@H]1CCCN(c2ccc3nnc(CCc4nc(-c5ccccc5C)no4)n3n2)C1` were, in that order, -2% and 0.35.
Regarding `Cc1nc(CCCc2ccc(F)cc2)n(CC(C)(C)O)n1`, the “% Inhibition” value was -9% and the Z score is on record as 1.21.
On to `CN(C(=O)c1cc(F)ccc1Cl)[C@H]1CCc2nn(C)c(=O)n2CC1`, for which the “% Inhibition” value is on record as -9% and the Z score was 1.38.
The like results for `Cc1cccc(N(CC(=O)N2CCCCC2)C(=O)[C@H]2CCOC2)c1` were, in that order, -15% and 1.3.
For the molecule `O=C(c1nn[nH]c1-c1ccccc1)N1CCCOCC1`, the “% Inhibition” value came to 10% and the Z score is recorded as -1.42.
For `COc1ccc(OCc2nccn2C(F)F)cc1OC`, the “% Inhibition” value is on record as -9% and the Z score is listed as 0.89.
For the molecule `COc1ccccc1-c1cc(C(F)(F)F)c2c(C3CC3)nn(CC(=O)O)c2n1`, the “% Inhibition” value is listed as -44% and the Z score stood at 5.15.
For `C#CCCOC(=O)[C@H](C)NC(=O)C1CCOCC1`, in that order: -8% and 1.6.
For `Cc1c(N2CCC(C(=O)N3CCCC3)CC2)c(=O)n(C)c(=O)n1-c1ccccc1`, the “% Inhibition” value is -12% and the Z score amounted to 2.26.
`Cc1noc([C@H]2OCC[C@H]2NC(=O)[C@H](C)Oc2cnc3ccccc3c2)n1`: the “% Inhibition” value is -13% and the Z score amounted to 1.46.
As to `CCC(OC1CCCC(C)C1)C(=O)N(C)CC1CCN(C)C1` (centres undefined), the “% Inhibition” value is -6% and the Z score was 0.63.
For `COc1cc(C)ccc1-c1c(-c2ccccc2)ncn1Cc1cc(C)on1`, in that order: -17% and 1.61.
For `Cc1ccnc(CNC(=O)C[C@H]2CC2(F)F)c1`, in that order: -19% and 1.73.
The like results for `Cc1cc(C)cc(NC(=O)C2[C@H]3C=C[C@@]4(O3)C(C(=O)NC3CCCCC3)N(CCN3CCOCC3)C(=O)[C@@H]24)c1` (some centres undefined) were, in that order, -6% and 0.9.
Consider `CNc1ncccc1C(=O)NCC1(S(C)(=O)=O)CCCC1`, for which the “% Inhibition” value was determined as 6% and the Z score is recorded as -0.72.
For `CCc1nccn1CCC(=O)Nc1ccc(N2C(=O)CC[C@@H]2C)cc1`, in that order: -10% and 1.02.
Turning to `Cc1ccc(S(=O)(=O)Nc2ccc(CN3CCC[C@H](C)C3)cc2)o1`, the “% Inhibition” value was -7% and the Z score was determined as 0.72.
For `O=C(NC1CCCOc2cc(F)ccc21)NC1CCCc2occc21` (centres undefined), the “% Inhibition” value was -4% and the Z score is 0.49.
On to `CCc1ncnc(NC[C@H]2CCNCC2(F)F)c1F`, for which the “% Inhibition” value is recorded as -13% and the Z score is 2.14.
For the molecule `CCN(C(=O)CCN1CCC[C@H](C(C)(C)O)C1)c1ccccc1C`, the “% Inhibition” value worked out at 8% and the Z score is listed as -1.06.
For `Cc1n[nH]c(C)c1S(=O)(=O)N(C)C1CCNCC1`, the “% Inhibition” value is on record as -13% and the Z score was determined as 1.71.
The like results for `c1cc(OCCO[C@@H]2CCCCO2)cc(-n2cncn2)c1` were, in that order, -10% and 1.3.
With `O=C(NCC#C[C@@H]1CCCCO1)c1cccn(C2CC2)c1=O`, the “% Inhibition” value is 1% and the Z score is -0.07.
For the molecule `COc1cc(NC(=O)CN(C)C2CCCC2)cc(OC)c1OC`, the “% Inhibition” value is recorded as -11% and the Z score worked out at 1.24.
The like results for `Cc1ccc(S(=O)(=O)N(c2sc3c(c2C#N)CCCC3)S(=O)(=O)c2ccc(C)cc2)cc1` were, in that order, 13% and -1.62.
`Cc1cccc(-c2noc(-c3ccc4ccccc4c3)n2)c1`: the “% Inhibition” value was -15% and the Z score was 2.66.
As for `COc1ccc2c(c1)CCCN(C(=O)c1nccc3occc13)C2`, the “% Inhibition” value was 2% and the Z score is -0.32.
As to `O=C(c1ccsc1)N1CC2(C[C@H](N3CCOCC3)CO2)C1`, the “% Inhibition” value is listed as -15% and the Z score came out at 2.38.
The like results for `CC(C)(C)c1ccc(OCc2nc([C@@H]3C[C@@H](O)CN3)n(CC(=O)O)n2)cc1` were, in that order, -4% and 0.61.
Take `O=C(Nc1ccc2c(c1)OCCO2)c1ccc(-c2noc(C3CCCC3)n2)cc1`: the “% Inhibition” value is -18% and the Z score is reported as 3.05.
The like results for `CCCn1c(=O)sc2cc(NS(=O)(=O)c3ccc(OC)cc3)ccc21` were, in that order, -11% and 1.48.
The like results for `CC1(C)CN(C(=O)Nc2ccnc(Oc3ccc(F)cc3F)c2)C[C@@H]1O` were, in that order, -5% and 0.64.
On to `Cn1c(=O)[nH]cc(C(=O)N2CC[C@@]23CCCN(C(=O)OC(C)(C)C)C3)c1=O`, for which the “% Inhibition” value is on record as -5% and the Z score was found to be 0.55.
